From the supplement of paper PMC4604168 (melanoma cell lines)
The other results are listed elsewhere or left out. Single values are uncertain, as repeats are few or missing.

System: MZ2-MEL
Test: cell count relative to DMSO control; melanoma cells; higher = more viable cells
Conditions: library dose: standard library concentration; 72 h
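Note: cells treated in 1,536-well plates, then fixed and DAPI-stained, with nuclei counted from automated high-throughput microscope images.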

Structure (SMILES)	cell count [%]
CN(c1ncccc1CNc1nc(Nc2ccc3c(c2)CC(=O)N3)ncc1C(F)(F)F)S(C)(=O)=O + COc1cc2ncnc(Nc3ccc(Oc4ccccc4)cc3)c2cc1OC [SrcI1] (first compound 0.4 µM, partner dose 10 µM)	50.6
NC1(c2ccc(-c3nc4ccn5c(=O)[nH]nc5c4cc3-c3ccccc3)cc2)CCC1 + Oc1cc(-c2nc(-c3ccccc3)[nH]c2-c2ccncc2)ccc1Cl [L779450] (first compound 2 µM, partner dose 1 µM)	105
CS(=O)(=O)c1ccc(C(=O)Nc2ccc(Cl)c(-c3ccccn3)c2)c(Cl)c1 [vismodegib] + C[C@]1(c2nc3c(C(N)=O)cccc3[nH]2)CCCN1 [Veliparib] (first compound 5 µM, partner dose 7 µM)	104

System: MeWo
Test: as above
Conditions: library dose: standard library concentration; 72 h

Structure (SMILES)	cell count [%]
CN(c1ncccc1CNc1nc(Nc2ccc3c(c2)CC(=O)N3)ncc1C(F)(F)F)S(C)(=O)=O + C[C@@H]1CCN(C(=O)CC#N)C[C@@H]1N(C)c1ncnc2[nH]ccc12 [CP690550] (first compound 0.4 µM, partner dose 5 µM)	116
CCCS(=O)(=O)Nc1ccc(F)c(C(=O)c2c[nH]c3ncc(Cl)cc23)c1F + Oc1cc(-c2nc(-c3ccccc3)[nH]c2-c2ccncc2)ccc1Cl [L779450] (first compound 0.4 µM, partner dose 1 µM)	74
C=C(c1ccc(C(=O)O)cc1)c1cc2c(cc1C)C(C)(C)CCC2(C)C [Bexarotene] + Oc1nc(-c2ccc(C(F)(F)F)cc2)nc2c1CSCC2 [XAV939] (first compound 10 µM, partner dose 10 µM)	90.2
C=C(c1ccc(C(=O)O)cc1)c1cc2c(cc1C)C(C)(C)CCC2(C)C [Bexarotene] + CCCS(=O)(=O)Nc1ccc(F)c(C(=O)c2c[nH]c3ncc(Cl)cc23)c1F [PLX4720] (first compound 10 µM, partner dose 0.4 µM)	92.1
CN(c1ncccc1CNc1nc(Nc2ccc3c(c2)CC(=O)N3)ncc1C(F)(F)F)S(C)(=O)=O + Cc1cc(N2CCOCC2)cc2[nH]c(-c3c(NC[C@@H](O)c4cccc(Cl)c4)cc[nH]c3=O)nc12 [BMS536924] (first compound 0.4 µM, partner dose 1 µM)	77.1
CS(=O)(=O)c1ccc(C(=O)Nc2ccc(Cl)c(-c3ccccn3)c2)c(Cl)c1 [vismodegib] + O=C(CCCCCCC(=O)Nc1ccccc1)NO [vorinostat] (first compound 5 µM, partner dose 0.4 µM)	75.5
NC1(c2ccc(-c3nc4ccn5c(=O)[nH]nc5c4cc3-c3ccccc3)cc2)CCC1 + Nc1cccc2c1CN(C1CCC(=O)NC1=O)C2=O [lenalidomide] (first compound 2 µM, partner dose 5 µM)	93.7
CS(=O)(=O)c1ccc(C(=O)Nc2ccc(Cl)c(-c3ccccn3)c2)c(Cl)c1 [vismodegib] + COc1ccc(-c2ccc3c(N4CCOCC4)nc(N4C[C@@H](C)O[C@@H](C)C4)nc3n2)cc1CO [KU0063794] (first compound 5 µM, partner dose 0.1 µM)	71.7
CS(=O)(=O)c1ccc(C(=O)Nc2ccc(Cl)c(-c3ccccn3)c2)c(Cl)c1 [vismodegib] + C=CCn1c(=O)c2cnc(Nc3ccc(N4CCN(C)CC4)cc3)nc2n1-c1cccc(C(C)(C)O)n1 [MK1775] (first compound 5 µM, partner dose 0.1 µM)	72.5
NC1(c2ccc(-c3nc4ccn5c(=O)[nH]nc5c4cc3-c3ccccc3)cc2)CCC1 + Cn1cc(/C=C2\C(=O)Nc3cccnc32)c2ccccc21 [GW441756] (first compound 2 µM, partner dose 2 µM)	63
C=C(c1ccc(C(=O)O)cc1)c1cc2c(cc1C)C(C)(C)CCC2(C)C [Bexarotene] + O=C1NC(=O)/C(=C/c2ccc(-c3ccc(F)cc3O)o2)S1 [AS252424] (first compound 10 µM, partner dose 5 µM)	79.9
CN(c1ncccc1CNc1nc(Nc2ccc3c(c2)CC(=O)N3)ncc1C(F)(F)F)S(C)(=O)=O + Cn1c(Nc2ccc(C(F)(F)F)cc2)nc2cc(Oc3ccnc(-c4ncc(C(F)(F)F)[nH]4)c3)ccc21 [CHIR265] (first compound 0.4 µM, partner dose 0.4 µM)	71.8
CS(=O)(=O)c1ccc(C(=O)Nc2ccc(Cl)c(-c3ccccn3)c2)c(Cl)c1 [vismodegib] + Cn1nnc2c(C(N)=O)ncn2c1=O [temozolomide] (first compound 5 µM, partner dose 10 µM)	89.2
CCCS(=O)(=O)Nc1ccc(F)c(C(=O)c2c[nH]c3ncc(Cl)cc23)c1F + Cn1nnc2c(C(N)=O)ncn2c1=O [temozolomide] (first compound 0.4 µM, partner dose 10 µM)	89.9
C=C(c1ccc(C(=O)O)cc1)c1cc2c(cc1C)C(C)(C)CCC2(C)C [Bexarotene] + C#Cc1cccc(Nc2ncnc3cc(OCCOC)c(OCCOC)cc23)c1 [erlotinib] (first compound 10 µM, partner dose 4 µM)	71.6
CS(=O)(=O)c1ccc(C(=O)Nc2ccc(Cl)c(-c3ccccn3)c2)c(Cl)c1 [vismodegib] + CCCCCCCCCCCC1=C(O)C(=O)C=C(O)C1=O [Embelin] (first compound 5 µM, partner dose 6 µM)	120
CCCS(=O)(=O)Nc1ccc(F)c(C(=O)c2c[nH]c3ncc(Cl)cc23)c1F + COc1ccc(COc2ccc(Cc3cnc(N)nc3N)cc2OC)cc1 [GW2580] (first compound 0.4 µM, partner dose 5 µM)	76
CN(c1ncccc1CNc1nc(Nc2ccc3c(c2)CC(=O)N3)ncc1C(F)(F)F)S(C)(=O)=O + CN(NC(=O)CC(=O)NN(C)C(=S)c1ccccc1)C(=S)c1ccccc1 [STA4783] (first compound 0.4 µM, partner dose 0.03 µM)	12.4
C=C(c1ccc(C(=O)O)cc1)c1cc2c(cc1C)C(C)(C)CCC2(C)C [Bexarotene] + Cc1cc(N2CCOCC2)cc2[nH]c(-c3c(NC[C@@H](O)c4cccc(Cl)c4)cc[nH]c3=O)nc12 [BMS536924] (first compound 10 µM, partner dose 1 µM)	74.8
CN(c1ncccc1CNc1nc(Nc2ccc3c(c2)CC(=O)N3)ncc1C(F)(F)F)S(C)(=O)=O + C#Cc1cccc(Nc2ncnc3cc(OCCOC)c(OCCOC)cc23)c1 [erlotinib] (first compound 0.4 µM, partner dose 4 µM)	83.8
C=C(c1ccc(C(=O)O)cc1)c1cc2c(cc1C)C(C)(C)CCC2(C)C [Bexarotene] + CN(NC(=O)CC(=O)NN(C)C(=S)c1ccccc1)C(=S)c1ccccc1 [STA4783] (first compound 10 µM, partner dose 0.03 µM)	23.9
NC1(c2ccc(-c3nc4ccn5c(=O)[nH]nc5c4cc3-c3ccccc3)cc2)CCC1 + O=C(O)C(=O)Nc1sc2c(c1C(=O)O)CCNC2 [TCS401] (first compound 2 µM, partner dose 8.33333 µM)	95.3
NC1(c2ccc(-c3nc4ccn5c(=O)[nH]nc5c4cc3-c3ccccc3)cc2)CCC1 + O=C(Nc1cccc(Cl)c1)Nc1ncc(CCNc2ncnc3ccsc23)s1 [SNS314] (first compound 2 µM, partner dose 0.004 µM)	77.1
CCCS(=O)(=O)Nc1ccc(F)c(C(=O)c2c[nH]c3ncc(Cl)cc23)c1F + CC(=O)c1c(C)c2cnc(Nc3ccc(N4CCNCC4)cn3)nc2n(C2CCCC2)c1=O [palbociclib] (first compound 0.4 µM, partner dose 0.2 µM)	54.4
CS(=O)(=O)c1ccc(C(=O)Nc2ccc(Cl)c(-c3ccccn3)c2)c(Cl)c1 [vismodegib] + Cc1cc(N2CCOCC2)cc2[nH]c(-c3c(NC[C@@H](O)c4cccc(Cl)c4)cc[nH]c3=O)nc12 [BMS536924] (first compound 5 µM, partner dose 1 µM)	73.5
CCCS(=O)(=O)Nc1ccc(F)c(C(=O)c2c[nH]c3ncc(Cl)cc23)c1F + CCCCCCCCCCCC1=C(O)C(=O)C=C(O)C1=O [Embelin] (first compound 0.4 µM, partner dose 6 µM)	123
NC1(c2ccc(-c3nc4ccn5c(=O)[nH]nc5c4cc3-c3ccccc3)cc2)CCC1 + CC(C)(C)c1cnc(CSc2cnc(NC(=O)C3CCNCC3)s2)o1 [SNS-032] (first compound 2 µM, partner dose 0.05 µM)	76
C=C(c1ccc(C(=O)O)cc1)c1cc2c(cc1C)C(C)(C)CCC2(C)C [Bexarotene] + CC(=O)c1c(C)c2cnc(Nc3ccc(N4CCNCC4)cn3)nc2n(C2CCCC2)c1=O [palbociclib] (first compound 10 µM, partner dose 0.2 µM)	47.5
CN(c1ncccc1CNc1nc(Nc2ccc3c(c2)CC(=O)N3)ncc1C(F)(F)F)S(C)(=O)=O + O=C(Nc1ccccc1)c1cc([N+](=O)[O-])ccc1Cl [GW9662] (first compound 0.4 µM, partner dose 10 µM)	83.5
CCCS(=O)(=O)Nc1ccc(F)c(C(=O)c2c[nH]c3ncc(Cl)cc23)c1F + Cc1nc(Nc2ncc(C(=O)Nc3c(C)cccc3Cl)s2)cc(N2CCN(CCO)CC2)n1 [dasatanib] (first compound 0.4 µM, partner dose 0.02 µM)	81.8
